Data on 153 variants can be found in a collection of fitness landscapes (doi:10.1126/science.1257360).

Sequences and labels used below:
B1: PhoQ; a variant is named by its letters at X, in order, P23837 (parent)
chain: MKKLLRLFFPLSLRVRFLLATAAVVLVLSLAYGMVALIGYSVSFDKTTFRLLRGESNLFYTLAKWENNKLHVELPENIDKQSPTMTLIYDENGQLLWAQRDVPWLMKMIQPDWLKSNGFHEIEADVNDTSLLLSGDHSIQQQLQEVREDDDDAEMTHSVAVNVYPATSRMPKLTIVVVDTIPVELKSSYMVWSWFIYVLSANLLLVIPLLWVAAWWSLRPIEALAKEVRELEEHNRELLNPATTRELTSLVRNLNRLLKSERERYDKYRTTLTDLTHSLKTPLXXLQXXLRSLRSEKMSVSDAEPVMLEQISRISQQIGYYLHRASMRGGTLLSRELHPVAPLLDNLTSALNKVYQRKGVNISLDISPEISFVGEQNDFVEVMGNVLDNACKYCLEFVEISARQTDEHLYIVVEDDGPGIPLSKREVIFDRGQRVDTLRPGQGVGLAVAREITEQYEGKIVAGESMLGGARMEVIFGRQHSAPKDE

The other results are listed elsewhere or left out.

This test covers variants of B1. Nature of the test: enrichment ratio after two sorts for PhoP signalling (ratio (wild type AVST 3.29)); higher = more functional. The note with it: with PhoP (E. coli).
For GTGF, the enrichment ratio amounted to 1.67.
With LDFI the figure was no more than 0.25; with ESIT, no more than 0.25; with KPEC, no more than 0.25.
With GVRD the figure was no more than 0.25; with INAG, 1.48.
In the case of GMGN it was 2.73; in that of KMCN, no more than 0.25; in that of DCRP, no more than 0.25.
As for SLGN, the enrichment ratio is no more than 0.25.
Consider RTQM, for which the enrichment ratio was no more than 0.25.
With VMNI the figure was no more than 0.25.
As for RIPE, the enrichment ratio is no more than 0.25.
For WTIR, the enrichment ratio was no more than 0.25.
In the case of SALP it was no more than 0.25; in that of YCNL, no more than 0.25.
In the case of CRIH it was no more than 0.25.
For CLTI, the enrichment ratio was no more than 0.25.
With SQKN the figure was no more than 0.25.
With DMAR the figure was no more than 0.25; with EPID, no more than 0.25.
In the case of LAAV it was no more than 0.25; in that of EGNY, no more than 0.25; in that of MYAN, no more than 0.25.
On to IAKY, for which the enrichment ratio was no more than 0.25.
In the case of KDPC it was no more than 0.25.
In the case of KTCH it was no more than 0.25; in that of GGAL, 4.27.
With RPYF the figure was no more than 0.25.
On to RMQI, for which the enrichment ratio was no more than 0.25.
With YEVC the figure was no more than 0.25; with LQNV, no more than 0.25; with AQCH, 32.7.
On to AFSK, for which the enrichment ratio was no more than 0.25.
With DTEA the figure was no more than 0.25.
As for PYQC, the enrichment ratio was no more than 0.25.
Consider PNHF, for which the enrichment ratio is no more than 0.25.
In the case of FSEM it was no more than 0.25.
Turning to NGHS, the enrichment ratio is no more than 0.25.
With HDCH the figure was no more than 0.25.
With SVIC the figure was 0.439; with SLEY, no more than 0.25; with RPPA, no more than 0.25.
In the case of AQPR it was no more than 0.25; in that of DSQI, no more than 0.25; in that of QHIG, no more than 0.25.
For the variant RHYI, the enrichment ratio was no more than 0.25.
As to HLCS, the enrichment ratio is no more than 0.25.
As to PQMV, the enrichment ratio is no more than 0.25.
Consider VFVS, for which the enrichment ratio was no more than 0.25.
With MHYW the figure was no more than 0.25; with LKYH, no more than 0.25.
With AFWN the figure was no more than 0.25.
In the case of NGMP it was no more than 0.25.
On to WYDY, for which the enrichment ratio is no more than 0.25.
With PVHC the figure was no more than 0.25; with AKGT, no more than 0.25.
With YIAM the figure was 0.253; with HQTG, no more than 0.25.
In the case of RSMH it was no more than 0.25; in that of RRQV, no more than 0.25; in that of NLSH, no more than 0.25.
Take KFWY: the enrichment ratio was no more than 0.25.
In the case of HGKF, the enrichment ratio is no more than 0.25.
LGWW: the enrichment ratio was no more than 0.25.
Take THDF: the enrichment ratio amounted to 11.6.
Turning to YHYM, the enrichment ratio is no more than 0.25.
With VNTY, the enrichment ratio is no more than 0.25.
With YFVN the figure was no more than 0.25; with ADGA, no more than 0.25.
For the variant QNEL, the enrichment ratio is no more than 0.25.
With KFRG the figure was no more than 0.25; with FACR, no more than 0.25.
As for DYIA, the enrichment ratio was no more than 0.25.
IFQD: the enrichment ratio is no more than 0.25.
With ATAY the figure was 0.49; with MIRG, no more than 0.25.
With YNQR the figure was no more than 0.25; with FESK, no more than 0.25; with NVSR, no more than 0.25.
In the case of IQID it was no more than 0.25.
In the case of HYIR, the enrichment ratio is no more than 0.25.
Take TFDF: the enrichment ratio is no more than 0.25.
For the variant QMLP, the enrichment ratio was no more than 0.25.
With QLDQ the figure was no more than 0.25; with RCFY, no more than 0.25; with FHMR, no more than 0.25.
For the variant NTKN, the enrichment ratio is no more than 0.25.
With GCRV the figure was no more than 0.25.
With KYRR the figure was no more than 0.25; with AQYR, no more than 0.25.
In the case of FTWC it was no more than 0.25; in that of KSNL, no more than 0.25.
Regarding MVCH, the enrichment ratio worked out at 3.47.
Consider RMRL, for which the enrichment ratio was no more than 0.25.
On to HTDC, for which the enrichment ratio was no more than 0.25.
SYCI: the enrichment ratio came to 0.48.
With ESQN the figure was no more than 0.25.
With EMDG the figure was no more than 0.25; with SPLW, no more than 0.25.
With TSLP, the enrichment ratio was no more than 0.25.
With FTVA, the enrichment ratio was no more than 0.25.
On to QSIN, for which the enrichment ratio was no more than 0.25.
With VRGP the figure was no more than 0.25; with LGAW, no more than 0.25; with GRID, no more than 0.25.
With KFTP the figure was no more than 0.25; with DVTT, no more than 0.25; with LCRY, no more than 0.25.
In the case of MRAD it was no more than 0.25; in that of ITHP, no more than 0.25; in that of NRGD, no more than 0.25.
For the variant PDQW, the enrichment ratio was no more than 0.25.
In the case of KCVL, the enrichment ratio is no more than 0.25.
In the case of MPVF it was no more than 0.25.
For the variant VLIL, the enrichment ratio was determined as 0.326.
Consider QAEH, for which the enrichment ratio was no more than 0.25.
In the case of NWVN it was no more than 0.25.
With FHNR the figure was no more than 0.25; with NTRH, no more than 0.25.
For LKAN, the enrichment ratio is no more than 0.25.
For the variant PDKT, the enrichment ratio is no more than 0.25.
In the case of INRY it was no more than 0.25; in that of SYSL, no more than 0.25; in that of PPYT, no more than 0.25.
In the case of QGMH it was no more than 0.25.
For YGGA, the enrichment ratio was no more than 0.25.
As to HFKG, the enrichment ratio is no more than 0.25.
Turning to RLKG, the enrichment ratio is no more than 0.25.
As for LLWK, the enrichment ratio was no more than 0.25.
In the case of LTLD it was no more than 0.25.
Consider YQVN, for which the enrichment ratio is no more than 0.25.
In the case of VHIH it was no more than 0.25; in that of YQHI, no more than 0.25.
In the case of YPSP it was no more than 0.25; in that of IGIK, no more than 0.25.
Take EFHW: the enrichment ratio is no more than 0.25.
As to YRKT, the enrichment ratio was no more than 0.25.
In the case of WNRH it was no more than 0.25.
In the case of AYLY it was no more than 0.25; in that of RNQV, no more than 0.25.
As to LHLF, the enrichment ratio is no more than 0.25.
With LLPQ, the enrichment ratio is no more than 0.25.
Turning to IYTK, the enrichment ratio was no more than 0.25.
Consider IPDC, for which the enrichment ratio is no more than 0.25.
In the case of ESSI it was 1.14.
In the case of QPMA it was no more than 0.25.
In the case of NHRY it was no more than 0.25.
In the case of PMQD, the enrichment ratio is no more than 0.25.
In the case of SNWL it was no more than 0.25; in that of IFYM, no more than 0.25.
With DYGV the figure was no more than 0.25.
On to PCIN, for which the enrichment ratio was no more than 0.25.
